Type in all cases: cell-based
One assay has as its target T1, Human GLP-1R (Homo sapiens, UniProt P43220).
T1 construct: expressed in transfected cells; host or cells: HEK-293
Put plainly: HTRF cAMP assay in HEK-293 cells, human GLP-1R. How it is done:
(§1) Recombinant HEK-293 cells were grown in T175 culture flasks placed at 37° C. to near confluence in medium (DMEM with 10% FBS) and collected in 2 mL vials in cell culture medium containing 10% DMSO in concentrations of 1-5×10^7 cells/mL. Each vial contained 1.8 mL cell suspension. The vials were slowly frozen to −80° C. in an isopropanol chamber, and then transferred to liquid nitrogen for long term storage.
(§2) Prior to their use, frozen cells were thawed quickly at 37° C., washed with 20 mL cell buffer (1×HBSS; 20 mM HEPES, 0.1% BSA) and centrifuged for 5 minutes at 900 rpm. Cells were resuspended in assay buffer (cell buffer plus 2 mM IBMX) and adjusted to a cell density of 1×10^6 cells/mL. For measurement, 5 μL cell suspension (final 5×10^3 cells/well) and 5 μL of test compound were added to a well of a 384-well plate, followed by incubation for 30 minutes at room temperature. […] The cAMP content of cells was determined using a kit from Cisbio Corp. (cat. no. 62AM4PEC) based on Homogenous Time Resolved Fluorescence (HTRF).

The target of a further assay is T2, Mouse GLP-1R (Mus musculus, UniProt O35659).
T2 construct: expressed in transfected cells; host or cells: HEK-293
T2 sequence (O35659 22-463): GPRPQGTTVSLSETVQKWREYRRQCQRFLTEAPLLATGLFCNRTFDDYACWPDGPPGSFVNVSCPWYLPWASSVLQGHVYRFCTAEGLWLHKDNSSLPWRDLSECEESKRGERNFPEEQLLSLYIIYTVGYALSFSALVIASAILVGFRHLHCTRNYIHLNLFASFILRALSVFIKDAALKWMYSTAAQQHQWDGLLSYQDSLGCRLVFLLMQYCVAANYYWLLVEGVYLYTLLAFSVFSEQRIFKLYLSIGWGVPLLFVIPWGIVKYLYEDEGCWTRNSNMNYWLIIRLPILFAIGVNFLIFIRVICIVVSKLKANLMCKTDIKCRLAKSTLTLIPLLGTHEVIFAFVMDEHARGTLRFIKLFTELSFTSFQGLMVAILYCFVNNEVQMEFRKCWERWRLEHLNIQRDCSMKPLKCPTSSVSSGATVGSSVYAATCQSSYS
Put plainly: HTRF cAMP assay in HEK-293 cells, mouse GLP-1R. How it is done:
as §1, §2

For another assay, the target named is T3, Monkey GLP-1R (Macaca fascicularis, UniProt F8V479).
T3 construct: expressed in transfected cells; host or cells: HEK-293
T3 sequence (F8V479 24-463): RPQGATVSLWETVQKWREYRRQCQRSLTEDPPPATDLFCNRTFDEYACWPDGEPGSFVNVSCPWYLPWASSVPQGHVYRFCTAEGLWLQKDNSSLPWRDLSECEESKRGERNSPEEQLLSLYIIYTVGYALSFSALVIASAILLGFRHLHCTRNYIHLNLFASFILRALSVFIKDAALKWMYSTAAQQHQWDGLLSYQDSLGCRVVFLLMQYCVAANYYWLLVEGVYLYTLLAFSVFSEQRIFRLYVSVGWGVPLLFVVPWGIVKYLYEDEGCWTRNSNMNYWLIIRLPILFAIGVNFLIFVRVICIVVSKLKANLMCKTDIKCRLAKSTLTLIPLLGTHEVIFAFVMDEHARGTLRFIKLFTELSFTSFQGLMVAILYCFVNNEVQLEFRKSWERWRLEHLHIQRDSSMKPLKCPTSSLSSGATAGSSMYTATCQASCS
Put plainly: HTRF cAMP assay in HEK-293 cells, monkey GLP-1R. How it is done:
as §1, §2

This note sets out measurements from patent publication US20230250147A1, “GLP-1R AGONISTIC PEPTIDES WITH REDUCED ACTIVITY” (SANOFI, priority 2020, published 2023).

T1 sequence (P43220 24-463): as the sequence (F8V479 24-463) above, with N112S, S120F, G202S, V205L, F237L, R241W, V249I counted along it

B1: 171 (protein)
chain: HGEGTFTSDKSKQLAKRLVRLFIEWLIKGGPSSGAPPPSGGGGGGGSGGGGSGGGGSA[… human IgG4 Fc with changes …]GGGSGSAHPIPDSSPLLQFGGQVRQRYLYTDDACQTEAHLEIREDGTVGGAADQSPESLLQLKALKPGVIQILGVKTSRFLCQRPDGALYGSLHFDPEACSFRELLLEDGYNVYQSEAHGLPLHLPGCKSPHRDPAPRGPARFLPLPGLPPAPPEPPGILAPQPPDVGSSDPLSMVGSQGRSPSYAS
modifications: Fusion Protein
As to B1, the EC50 in the assay with Human GLP-1R turned out to be 0.267 nM.

B2: 96 (protein)
chain: HGEGTFTSDLSILLEEEAVRLFIEWLLATGPSSGAPPPSGGGGGGGSGGGGSGGGGSA[… human IgG4 Fc with changes …]GGGSGSAHPIPDSSPLLQFGGQVRQRYLYTDDACQTEAHLEIREDGTVGGAADQSPESLLQLKALKPGVIQILGVKTSRFLCQRPDGALYGSLHFDPEACSFRELLLEDGYNVYQSEAHGLPLHLPGCKSPHRDPAPRGPARFLPLPGLPPAPPEPPGILAPQPPDVGSSDPLSMVGSQGRSPSYAS
modifications: Fusion Protein
In the case of B2, a half-maximal effect in the assay with Human GLP-1R (EC50) was put at 0.044 nM.

B3: 89 (protein)
chain: HGEGTFTSDLSILLDEEAVRLFIEWLLATGPSSGAPPPSGGGGGGGSGGGGSGGGGSA[… human IgG4 Fc with changes …]GGGSGSAHPIPDSSPLLQFGGQVRQRYLYTDDACQTEAHLEIREDGTVGGAADQSPESLLQLKALKPGVIQILGVKTSRFLCQRPDGALYGSLHFDPEACSFRELLLEDGYNVYQSEAHGLPLHLPGCKSPHRDPAPRGPARFLPLPGLPPAPPEPPGILAPQPPDVGSSDPLSMVGSQGRSPSYAS
modifications: Fusion Protein
B3 gave a 50% effective concentration (EC50) with Human GLP-1R of 0.0453 nM.

B4: 174 (protein)
chain: HGEGTFTSDLSKQLAKRLVREFIEWLIEGGPSSGAPPPSGGGGGGGSGGGGSGGGGSA[… human IgG4 Fc with changes …]GGGSGSAHPIPDSSPLLQFGGQVRQRYLYTDDACQTEAHLEIREDGTVGGAADQSPESLLQLKALKPGVIQILGVKTSRFLCQRPDGALYGSLHFDPEACSFRELLLEDGYNVYQSEAHGLPLHLPGCKSPHRDPAPRGPARFLPLPGLPPAPPEPPGILAPQPPDVGSSDPLSMVGSQGRSPSYAS
modifications: Fusion Protein
B4 came in with a concentration for a half-maximal effect (EC50) in the assay with Human GLP-1R of 0.077 nM.

B5: 18 (protein)
chain: HGEGTFTSDLSKQLEEERVQEFIEWLKAGGPSSGAPPPSGGGGGGGSGGGGSGGGGSA[… human IgG4 Fc with changes …]GGGSGSAHPIPDSSPLLQFGGQVRQRYLYTDDACQTEAHLEIREDGTVGGAADQSPESLLQLKALKPGVIQILGVKTSRFLCQRPDGALYGSLHFDPEACSFRELLLEDGYNVYQSEAHGLPLHLCGNKSPHRDPAPRGPARFLPLPGLPPAPPEPPGILAPQPPDVGSSDPLSMVGSQGRSPSYAS
modifications: Fusion Protein
As for B5, the results for the EC50 in the assay with Mouse GLP-1R, in the assay with Monkey GLP-1R and with Human GLP-1R were 0.00209 nM, 0.0102 nM and 0.0099 nM, respectively.

B6: 23 (protein)
chain: HGEGTFTSDLSIQLEEEAVQEFIEWLLATGPSSGAPPPSGGGGGGGSGGGGSGGGGSA[… human IgG4 Fc with changes …]GGGSGSAHPIPDSSPLLQFGGQVRQRYLYTDDACQTEAHLEIREDGTVGGAADQSPESLLQLKALKPGVIQILGVKTSRFLCQRPDGALYGSLHFDPEACSFRELLLEDGYNVYQSEAHGLPLHLPGCKSPHRDPAPRGPARFLPLPGLPPAPPEPPGILAPQPPDVGSSDPLSMVGSQGRSPSYAS
modifications: Fusion Protein
Regarding B6, the 50% effective concentration (EC50) stood at 0.00332 nM in the assay with Mouse GLP-1R, 0.0707 nM with Monkey GLP-1R and 0.0787 nM with Human GLP-1R.

B7: 90 (protein)
chain: HGEGTFTSDLSILLDEEAVQLFIEWLLATGPSSGAPPPSGGGGGGGSGGGGSGGGGSA[… human IgG4 Fc with changes …]GGGSGSAHPIPDSSPLLQFGGQVRQRYLYTDDACQTEAHLEIREDGTVGGAADQSPESLLQLKALKPGVIQILGVKTSRFLCQRPDGALYGSLHFDPEACSFRELLLEDGYNVYQSEAHGLPLHLPGCKSPHRDPAPRGPARFLPLPGLPPAPPEPPGILAPQPPDVGSSDPLSMVGSQGRSPSYAS
modifications: Fusion Protein
With B7, the EC50 with Human GLP-1R was 0.336 nM.

B8: 21 (protein)
chain: HGEGTFTSDLSIQLEEEAVQEFIEWLLATGPSSGAPPPSGGGGGGGSGGGGSGGGGSA[… human IgG4 Fc with changes …]GGGSGSAHPIPDSSPLLQFGGQVRQRYLYTDDACQTEAHLEIREDGTVGGAADQSPESLLQLKALKPGVIQILGVKTSRFLCQRPDGALYGSLHFDPEACSFRELLLEDGYNVYQSEAHGLPLHLCGNKSPHRDPAPRGPARFLPLPGLPPAPPEPPGILAPQPPDVGSSDPLSMVGSQGRSPSYAS
modifications: Fusion Protein
B8: the EC50 amounted to 0.00419 nM in the assay with Mouse GLP-1R, 0.0787 nM with Monkey GLP-1R and 0.0938 nM with Human GLP-1R.

B9: 95 (protein)
chain: HGEGTFTSDLSILLEEEAVREFIEWLLATGPSSGAPPPSGGGGGGGSGGGGSGGGGSA[… human IgG4 Fc with changes …]GGGSGSAHPIPDSSPLLQFGGQVRQRYLYTDDACQTEAHLEIREDGTVGGAADQSPESLLQLKALKPGVIQILGVKTSRFLCQRPDGALYGSLHFDPEACSFRELLLEDGYNVYQSEAHGLPLHLPGCKSPHRDPAPRGPARFLPLPGLPPAPPEPPGILAPQPPDVGSSDPLSMVGSQGRSPSYAS
modifications: Fusion Protein
In turn, B9 showed an EC50 in the assay with Human GLP-1R of 0.0185 nM.

B10: 88 (protein)
chain: HGEGTFTSDLSILLDEEAVREFIEWLLATGPSSGAPPPSGGGGGGGSGGGGSGGGGSA[… human IgG4 Fc with changes …]GGGSGSAHPIPDSSPLLQFGGQVRQRYLYTDDACQTEAHLEIREDGTVGGAADQSPESLLQLKALKPGVIQILGVKTSRFLCQRPDGALYGSLHFDPEACSFRELLLEDGYNVYQSEAHGLPLHLPGCKSPHRDPAPRGPARFLPLPGLPPAPPEPPGILAPQPPDVGSSDPLSMVGSQGRSPSYAS
modifications: Fusion Protein
B10: the concentration for a half-maximal effect (EC50) with Human GLP-1R was determined as 0.033 nM.

B11: 19 (protein)
chain: HGEGTFTSDLSKQLEEERVQEFIEWLKAGGPSSGAPPPSGGGGGGGSGGGGSGGGGSA[… human IgG4 Fc with changes …]GGGSGSAHPIPDSSPLLQFGGQVRQRYLYTDDACQTEAHLEIREDGTVGGAADQSPESLLQLKALKPGVIQILGVKTSRFLCQRPDGALYGSLHFDPEACSFRELLLEDGYNVYQSEAHGLPLHLCGNKSPHRDPAPRGPARFLPLPGLPPAPPEPPGILAPQPPDVGSSDPLSMVYPSQGRSPSYAS
modifications: Fusion Protein
Consider B11, for which the EC50 in the assay with Mouse GLP-1R turned out to be 0.00216 nM; with Monkey GLP-1R, 0.0109 nM; with Human GLP-1R it was 0.0112 nM.

B12: 20 (protein)
chain: HGEGTFTSDLSKQLEEERVQEFIEWLKAGGPSSGAPPPSGGGGGGGSGGGGSGGGGSA[… human IgG4 Fc with changes …]GGGSGSAHPIPDSSPLLQFGGQVRQRYLYTDDACQTEAHLEIREDGTVGGAADQSPESLLQLKALKPGVIQILGVKTSRFLCQRPDGALYGSLHFDPEACSFRELLLEDGYNVYQSEAHGLPLHLPGCKSPHRDPAPRGPARFLPLPGLPPAPPEPPGILAPQPPDVGSSDPLSMVYPSQGRSPSYAS
modifications: Fusion Protein
On to B12, for which the EC50 in the assay with Mouse GLP-1R turned out to be 0.00197 nM; with Monkey GLP-1R it was 0.00986 nM; in the assay with Human GLP-1R, 0.00949 nM.

B13: 22 (protein)
chain: HGEGTFTSDLSIQLEEEAVQEFIEWLLATGPSSGAPPPSGGGGGGGSGGGGSGGGGSA[… human IgG4 Fc with changes …]GGGSGSAHPIPDSSPLLQFGGQVRQRYLYTDDACQTEAHLEIREDGTVGGAADQSPESLLQLKALKPGVIQILGVKTSRFLCQRPDGALYGSLHFDPEACSFRELLLEDGYNVYQSEAHGLPLHLCGNKSPHRDPAPRGPARFLPLPGLPPAPPEPPGILAPQPPDVGSSDPLSMVYPSQGRSPSYAS
modifications: Fusion Protein
Regarding B13, the EC50 with Mouse GLP-1R was determined as 0.00388 nM; with Monkey GLP-1R, 0.0739 nM; with Human GLP-1R it was 0.0856 nM.

B14: 24 (protein)
chain: HGEGTFTSDLSIQLEEEAVQEFIEWLLATGPSSGAPPPSGGGGGGGSGGGGSGGGGSA[… human IgG4 Fc with changes …]GGGSGSAHPIPDSSPLLQFGGQVRQRYLYTDDACQTEAHLEIREDGTVGGAADQSPESLLQLKALKPGVIQILGVKTSRFLCQRPDGALYGSLHFDPEACSFRELLLEDGYNVYQSEAHGLPLHLPGCKSPHRDPAPRGPARFLPLPGLPPAPPEPPGILAPQPPDVGSSDPLSMVYPSQGRSPSYAS
modifications: Fusion Protein
Regarding B14, the EC50 stood at 0.00266 nM with Mouse GLP-1R, 0.0435 nM with Monkey GLP-1R and 0.0488 nM with Human GLP-1R.

A word on the EC50: it is the midpoint of the concentration-response curve.
